In the supplement of paper PMC9151546:
Repeats are few or missing, and single values can be far off.

Key:
CHO-K1 [1] = assay: micronucleus frequency (% of nucleated events); higher = more micronuclei (genotoxic)
CHO-K1 [2] = assay: hypodiploid nuclei frequency (% of nucleated events); higher = more hypodiploid events (aneugenic)
Description: (§1)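 Flow-cytometric in vitro micronucleus assay (Litron MicroFlow) in CHO-K1 cells in 96-well plates, 19 concentrations (4.5-200 µM, n=1 per concentration). Without S9, cells were exposed for 24 h and sampled at 48 h. With Aroclor 1254-induced rat liver S9, cells were exposed for 3-4 h and sampled at 27-28 h. Read-outs are %MN and %hypodiploid nuclei relative to nucleated events, and relative survival as the nuclei-to-bead ratio versus the 1% DMSO vehicle control (x100).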

CHO-K1 [3] = assay: relative survival (nuclei to bead ratio vs DMSO control) (% of vehicle control); higher = more surviving cells
Description: as §1
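Wherever hypodiploid nuclei frequency (% of nucleated events) is given: hypodiploid nuclei gated on a flow cytometer with 488 nm excitation after SYTOX Green staining, cultures at 37 °C, positive controls vinblastine without S9 and cyclophosphamide with S9.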
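Wherever micronucleus frequency (% of nucleated events) is given: cells lysed with nuclei stained by SYTOX Green, then micronucleus-gated events counted against nucleated events by flow cytometry with 488 nm excitation.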
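Wherever relative survival (nuclei to bead ratio vs DMSO control) is given: Lysed-cell nuclei stained with SYTOX Green and counted against counting beads by flow cytometry at 488 nm excitation, with vinblastine (no S9) and cyclophosphamide (plus S9) as positive controls.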

NC(=Nc1ccccc1)Nc1ccccc1 [1,3-Diphenylguanidine]
Settings | hypodiploid nuclei frequency, CHO-K1 [2] [%] | micronucleus frequency, CHO-K1 [1] [%] | relative survival, CHO-K1 [3]
concentration: 4.5 (µM), S9 metabolic activation: with S9, exposure time: 3-4 hours | 0.32 | 1.86 | 131
concentration: 4.5 (µM), S9 metabolic activation: without S9, exposure time: 24 hours | 0.4 | 1.84 | 135
concentration: 5.63 (µM), S9 metabolic activation: with S9, exposure time: 3-4 hours | 0.24 | 1.08 | 122
concentration: 5.63 (µM), S9 metabolic activation: without S9, exposure time: 24 hours | 0.46 | 1.54 | 137
concentration: 7.04 (µM), S9 metabolic activation: with S9, exposure time: 3-4 hours | 0.1 | 1.3 | 112
concentration: 7.04 (µM), S9 metabolic activation: without S9, exposure time: 24 hours | 0.66 | 1.22 | 166
concentration: 8.8 (µM), S9 metabolic activation: with S9, exposure time: 3-4 hours | 0.2 | 0.92 | 100
concentration: 8.8 (µM), S9 metabolic activation: without S9, exposure time: 24 hours | 0.52 | 1.18 | 135
concentration: 11 (µM), S9 metabolic activation: with S9, exposure time: 3-4 hours | 0.38 | 1.04 | 103
concentration: 11 (µM), S9 metabolic activation: without S9, exposure time: 24 hours | 0.66 | 1.34 | 121
concentration: 13.7 (µM), S9 metabolic activation: with S9, exposure time: 3-4 hours | 0.1 | 1.16 | 104
concentration: 13.7 (µM), S9 metabolic activation: without S9, exposure time: 24 hours | 0.56 | 1.54 | 139
concentration: 17.2 (µM), S9 metabolic activation: with S9, exposure time: 3-4 hours | 0.22 | 1.12 | 122
concentration: 17.2 (µM), S9 metabolic activation: without S9, exposure time: 24 hours | 0.62 | 1.3 | 123
concentration: 21.5 (µM), S9 metabolic activation: with S9, exposure time: 3-4 hours | 0.1 | 1.44 | 124
concentration: 21.5 (µM), S9 metabolic activation: without S9, exposure time: 24 hours | 0.64 | 1.58 | 173
concentration: 26.8 (µM), S9 metabolic activation: with S9, exposure time: 3-4 hours | 0.24 | 1.12 | 161
concentration: 26.8 (µM), S9 metabolic activation: without S9, exposure time: 24 hours | 0.66 | 1.46 | 108
concentration: 33.6 (µM), S9 metabolic activation: with S9, exposure time: 3-4 hours | 0.22 | 1.06 | 136
concentration: 33.6 (µM), S9 metabolic activation: without S9, exposure time: 24 hours | 0.74 | 1.4 | 135
concentration: 41.9 (µM), S9 metabolic activation: with S9, exposure time: 3-4 hours | 0.24 | 1.26 | 103
concentration: 41.9 (µM), S9 metabolic activation: without S9, exposure time: 24 hours | 0.86 | 1.72 | 125
concentration: 52.4 (µM), S9 metabolic activation: with S9, exposure time: 3-4 hours | 0.32 | 1.38 | 119
concentration: 52.4 (µM), S9 metabolic activation: without S9, exposure time: 24 hours | 0.64 | 1.6 | 137
concentration: 65.5 (µM), S9 metabolic activation: with S9, exposure time: 3-4 hours | 0.2 | 1 | 133
concentration: 65.5 (µM), S9 metabolic activation: without S9, exposure time: 24 hours | 0.82 | 1.88 | 135
concentration: 81.9 (µM), S9 metabolic activation: with S9, exposure time: 3-4 hours | 0.24 | 1.1 | 120
concentration: 81.9 (µM), S9 metabolic activation: without S9, exposure time: 24 hours | 0.82 | 1.96 | 156
concentration: 102 (µM), S9 metabolic activation: with S9, exposure time: 3-4 hours | 0.22 | 0.88 | 119
concentration: 102 (µM), S9 metabolic activation: without S9, exposure time: 24 hours | 1.04 | 2 | 133
concentration: 128 (µM), S9 metabolic activation: with S9, exposure time: 3-4 hours | 0.18 | 1.34 | 110
concentration: 128 (µM), S9 metabolic activation: without S9, exposure time: 24 hours | 0.98 | 2.6 | 110
concentration: 160 (µM), S9 metabolic activation: with S9, exposure time: 3-4 hours | 0.24 | 1.1 | 110
concentration: 160 (µM), S9 metabolic activation: without S9, exposure time: 24 hours | 1.28 | 3.04 | 112
concentration: 200 (µM), S9 metabolic activation: with S9, exposure time: 3-4 hours | 0.28 | 1.22 | 132
concentration: 200 (µM), S9 metabolic activation: without S9, exposure time: 24 hours | 1.34 | 3.06 | 91.9
